Hit rate of the full screen: of about 390,000 compounds, about 17,000 (4.4%) were called active. This list was built around the results that the source calls inconclusive (neither active nor inactive); the mix of calls is not that of the screen. Calls come from the whole dose curve; as a rule, active = well fitted inhibition curve with a large enough effect; inconclusive = small, poorly fitted or top-dose-only effect; inactive = no such curve, though single readings can be large or run the other way. A potency beside an inconclusive call is a rough fit, not a confirmed value.
Each compound was assayed against Lysine-specific demethylase 4A (Homo sapiens) (UniProt O75164) (assay: qHTS Assay for Inhibitors of JMJD2A-Tudor Domain). Details: AlphaScreen JMJD2A-Tudor / H3K4me3 peptide binding; activity change, negative = inhibition: at 114 µM (top of the series).
% is set by controls: 0 for no effect and ±100 for the full control effect; potency is the fitted concentration of half-maximal effect; tags give direction and shape of the fitted curve.
Note: nearly all actives have a fitted effect of over 50% in size.

Sequence of UniProt O75164 (O75164 whole entry, looked up, the tested form may be a part): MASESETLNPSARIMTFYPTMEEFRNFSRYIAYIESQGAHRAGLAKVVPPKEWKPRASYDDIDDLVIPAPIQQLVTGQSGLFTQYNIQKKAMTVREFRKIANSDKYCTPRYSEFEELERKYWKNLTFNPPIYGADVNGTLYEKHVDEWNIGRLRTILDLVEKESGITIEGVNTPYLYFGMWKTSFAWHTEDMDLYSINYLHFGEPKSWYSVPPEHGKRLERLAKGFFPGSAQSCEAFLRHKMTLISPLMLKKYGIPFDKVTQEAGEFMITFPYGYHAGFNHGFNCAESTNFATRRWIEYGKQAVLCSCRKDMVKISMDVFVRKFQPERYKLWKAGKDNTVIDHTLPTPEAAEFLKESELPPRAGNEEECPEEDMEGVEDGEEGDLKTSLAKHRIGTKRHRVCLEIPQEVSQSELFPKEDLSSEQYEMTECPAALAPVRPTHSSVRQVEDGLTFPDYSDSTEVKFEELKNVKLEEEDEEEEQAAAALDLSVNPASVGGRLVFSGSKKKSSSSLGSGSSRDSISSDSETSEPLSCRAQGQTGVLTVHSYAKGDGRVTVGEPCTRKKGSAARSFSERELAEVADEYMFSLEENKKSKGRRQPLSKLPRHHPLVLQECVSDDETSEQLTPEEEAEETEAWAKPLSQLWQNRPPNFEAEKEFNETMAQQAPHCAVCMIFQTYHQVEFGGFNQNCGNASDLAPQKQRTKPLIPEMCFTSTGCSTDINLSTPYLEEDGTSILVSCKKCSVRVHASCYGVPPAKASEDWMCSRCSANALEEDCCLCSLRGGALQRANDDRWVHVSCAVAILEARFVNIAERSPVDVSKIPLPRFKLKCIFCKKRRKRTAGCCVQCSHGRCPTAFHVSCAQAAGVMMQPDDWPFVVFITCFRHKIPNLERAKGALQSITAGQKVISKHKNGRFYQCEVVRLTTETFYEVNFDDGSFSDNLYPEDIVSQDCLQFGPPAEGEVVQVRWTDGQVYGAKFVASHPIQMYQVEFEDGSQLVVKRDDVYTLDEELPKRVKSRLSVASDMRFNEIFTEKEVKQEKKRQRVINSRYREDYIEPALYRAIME

SMILES	Potency	activity change, negative = inhibition
COc1ccc(OC)c(CCNC(=O)c2cc3c(-c4ccccc4F)nn(C)c3s2)c1	inconclusive: 10 µM [inhibitor, full curve]	
Cc1ccc(C)c(N2CCN(C(=O)CCS(=O)(=O)c3cccc4nonc34)CC2)c1	inconclusive: 56.2 µM [inhibitor, partial curve, poor fit]	
CCOC(=O)c1sc(=S)n2c1[nH]c(=O)c1ccc(C(=O)OC)cc12	inconclusive: 100 µM [inhibitor, single point]	
Cc1ccc(S(=O)(=O)/N=C(/Nc2ccc([N+](=O)[O-])cc2)c2ccccc2)cc1	inconclusive: 56.2 µM [inhibitor, partial curve]	
CCCn1c(N)c(C(=O)NS(=O)(=O)c2ccc(C)cc2)c(=O)n(C)c1=O	inconclusive: 63.1 µM [inhibitor, partial curve]	
COc1ccc(C)cc1NS(=O)(=O)c1ccc2c(c1)[C@H]1C=CC[C@H]1[C@@H](c1cccc(Cl)c1)N2	inconclusive: 89.1 µM [inhibitor, partial curve]	
S=c1[nH]nc(-c2ccc3ccccc3n2)n1-c1ccccc1	inconclusive: 22.4 µM [inhibitor, full curve]	
O=C(Nc1cc(=O)[nH]c2nc(-c3ccccc3)nn12)c1ccccc1Cl	inconclusive: 25.1 µM [inhibitor, partial curve]	
COc1ccccc1C(=O)Nc1ccc(-c2nnc(SCC(=O)O)n2C)cc1	active: 100 µM	
O=C(CSc1nc(-c2ccccc2)c(-c2ccccc2)[nH]1)NCc1ccco1	active: 39.8 µM	
Cc1ccccc1Cc1c(C)nc2nc(SCC(=O)NCCCN3CCCC3)nn2c1C	inactive	
Cc1ccc(-c2c(C(=O)N3CCN(c4cccc(C)c4C)CC3)oc(=O)c3ccccc23)cc1	inconclusive: 5.01 µM [inhibitor, full curve, poor fit]	
CC(C)(C)c1cc(CCC(=O)N2CCCC2)cc(C(C)(C)C)c1O	inactive	
O=C(COc1ccc(Cl)cc1Br)Nc1ccccc1N1CCCC1		inconclusive: -37.9% [inhibitor]
CC(=O)c1cccc(NC(=O)c2cnn(-c3cccc(C)c3)c2-n2cccc2)c1	inactive	
COc1ccc(C(CNC(=O)c2ccc(-c3cccc(C(F)(F)F)c3)o2)N2CCOCC2)cc1 (stereo unspecified)	inconclusive: 39.8 µM [inhibitor, full curve, poor fit]	
CC(=O)OCC(NC(=O)C(CCCCNC(=O)OCc1ccccc1)NC(=O)OC(C)(C)C)C1OC(n2cc(F)c(=O)[nH]c2=O)C(OC(C)=O)C1OC(C)=O (stereo unspecified)	inactive	
CCOC(=O)C1CCN(Cc2coc3c(Cl)cc(Cl)cc3c2=O)CC1	active: 20 µM	
CN(C)c1nc(=NCc2cccs2)ss1	inconclusive: 89.1 µM [inhibitor, partial curve]	
CC(C)=N/N=C1/NC(=O)C(c2ccc(Cl)cc2)S1 (stereo unspecified)	inactive	
COc1ccccc1OCC(=O)N(Cc1ccc(N(C)C)cc1)CC1CCCO1 (stereo unspecified)	inconclusive: 50.1 µM [inhibitor, partial curve]	
Cc1noc(NS(=O)(=O)c2ccc(N/C=C\C(=O)c3cccc4ccccc34)cc2)c1C	inconclusive: 3.55 µM [inhibitor, single point]	
CC(=O)c1ccc(NC(=O)C2CCN(S(=O)(=O)c3ccc4c(c3)CCCN4C(=O)C3CCC3)CC2)cc1	inactive	
N/C(CS(=O)(=O)c1ccccn1)=N\OC(=O)c1ccccc1Cl	inconclusive: 22.4 µM [inhibitor, single point]	

SMILES	Potency	activity change, negative = inhibition
C/C(=N\NC(=O)c1cc(C)nc2ccccc12)c1ccccn1	active: 20 µM	
Cc1cc(C(=O)Cn2cncn2)c(C)n1CCc1ccc(F)cc1	inconclusive: 89.1 µM [inhibitor, single point]	
NS(=O)(=O)c1ccc(NC(=O)c2ccc(S(=O)(=O)N3CCCCCC3)cc2)cc1	inactive	
Cc1cc(C)c(NC(=O)CSc2nc(C)cc(C)c2C#N)c(C)c1	inactive	
CCOC(=O)Cc1csc(NC(=O)CSc2nccn2C)n1	inactive	
Cc1ccc(C)c(NC(=O)N2CC=C(c3c[nH]c4ccccc34)CC2)c1	inconclusive: 50.1 µM [inhibitor, partial curve]	
COc1cc(/C=C2\SC(=S)N(CCC(=O)N3CCN(C)CC3)C2=O)cc(OC)c1OC	inconclusive: 50.1 µM [inhibitor, partial curve]	
Cc1cccc(N(C)C(=O)C(Cc2ccccc2)NS(=O)(=O)c2cccc3nsnc23)c1 (stereo unspecified)	inconclusive: 10 µM [inhibitor, full curve, poor fit]	
CCN(CCNC(=O)C1CCN(S(=O)(=O)c2cccc3nsnc23)CC1)c1ccccc1	inconclusive: 70.8 µM [inhibitor, single point]	
CN(C)S(=O)(=O)c1cccc(-c2csc(N/N=C/c3ccco3)n2)c1	inconclusive: 56.2 µM [inhibitor, partial curve]	
CC(C)Cn1[nH]c2c3c(ccc2c1=O)C(=O)c1ccccc1C3=O	inactive	
COc1ccc(-n2cnnc2SCC(=O)c2cc(C)n(Cc3cccs3)c2C)cc1	inconclusive: 50.1 µM [inhibitor, partial curve]	
CCCc1ccc(OCC(O)CN2CCN(c3ccccn3)CC2)cc1 (stereo unspecified)	inconclusive: 89.1 µM [inhibitor, partial curve]	
Cc1ccc(-c2csc(-c3ccncc3)n2)cc1	inactive	
O=c1cc(O)c2sc3nc(-c4cccnc4)cc(C(F)(F)F)c3c2[nH]1	inconclusive: 12.6 µM [inhibitor, full curve, poor fit]	
CCN(C(=O)CN1CCN(C)CC1)c1cccc2ccccc12	active: 1.78 µM	
COc1ccc(CCN(C)CC(O)c2ccccc2)cc1OC (stereo unspecified)	active: 2.51 µM	
COc1ccc(N2CCN(CC(=O)Nc3ccccc3C(=O)NCc3ccccc3)CC2)cc1	active: 56.2 µM	
CCCNC(=O)C(Cc1ccccc1)NC(=O)Cc1ccccc1 (stereo unspecified)	inactive	
Cc1ccc(F)cc1NC(=O)c1c(-c2ccccc2)noc1C	inactive	
Cc1ccccc1Nc1nc(=O)c2cc([N+](=O)[O-])ccc2s1	inactive	
CCC(C)(C)c1ccc(Oc2ccc(N)cc2)cc1	active: 56.2 µM	
O=C(CCNC(=O)C1CCN(S(=O)(=O)c2ccccc2)CC1)NCc1ccccc1Cl	inconclusive: 70.8 µM [inhibitor, partial curve, poor fit]	
O=C(NCc1ccco1)c1cnn2c(C(F)(F)F)cc(-c3ccccc3)nc12	inactive	

SMILES	Potency	activity change, negative = inhibition
CCN(CC)c1ccc(/C=N\N2CCN(Cc3ccc(C)cc3)CC2)cc1	active: 22.4 µM	
CCOc1ccc(Br)cc1C1=NN(C(C)=O)C(c2ccc([N+](=O)[O-])s2)O1 (stereo unspecified)	inconclusive: 35.5 µM [inhibitor, full curve]	
Cc1nc2nc(SCC(=O)NCc3ccco3)nn2c(C)c1Cc1ccccc1	inconclusive: 17.8 µM [inhibitor, full curve]	
c1ccc2c3c([nH]c2c1)-c1[nH]ncc1CC3	inconclusive: 44.7 µM [inhibitor, partial curve]	
CCN(CCCNC(=O)c1cc2c(=O)n(CC)c3ccccc3c2s1)c1ccccc1	inconclusive: 8.91 µM [inhibitor, full curve, poor fit]	
COC(=O)c1ccccc1NC(=O)COC(=O)C1CCCCC1	inactive	
Cc1nc2ccc(N=NC3=C(O)CCCC3=O)cc2s1	inconclusive: 89.1 µM [inhibitor, single point]	
Oc1c(CN2CCOCC2)cc(CN2CCOCC2)c(O)c1O	active: 11.2 µM	
CC1CCCC(C)N1C(=O)CSc1nnc(C2CCCCC2)o1 (stereo unspecified)	inconclusive: 56.2 µM [inhibitor, partial curve]	
O=C(O)c1ccc2c(c1)C(=O)N(c1ccc(C(=O)OCC(=O)c3ccccc3)cc1)C2=O	inactive	
CCN(C[C@H]1N[C@@](C)(C(=O)OC)[C@H]2C(=O)N(C)C(=O)[C@@H]12)C(=O)C1CCCCC1	inconclusive: 79.4 µM [inhibitor, single point]	
Cc1cccn2cc(CCNS(=O)(=O)c3cccc([N+](=O)[O-])c3)nc12	inactive	
CC1CC1C(=O)Nc1nc(-c2ccccn2)cs1 (stereo unspecified)	active: 56.2 µM	
CCOc1ccc(-c2nc(C#N)c(NCCCOC)o2)cc1	inconclusive: 56.2 µM [inhibitor, partial curve, poor fit]	
O=C(O)C1C2C=CC(C2)C1C(=O)Nc1ccc(C(=O)N2CCCCC2)cc1 (stereo unspecified)	inactive	
COc1ccc(Nc2nc(N)c([N+](=O)[O-])c(N3CCCC3)n2)cc1	inconclusive: 50.1 µM [inhibitor, partial curve]	
O=C(OCc1ccccc1)c1ccc(NCc2cc(O)ccc2O)cc1	active: 25.1 µM	
COc1ccc(/C=N/Nc2ccccc2C(=O)O)cc1Cn1cc([N+](=O)[O-])cn1	inconclusive: 79.4 µM [inhibitor, partial curve]	
O=C(CC(SCc1ccco1)c1ccc(O)cc1)c1cccs1 (stereo unspecified)	inconclusive: 56.2 µM [inhibitor, partial curve]	
CCOc1ccccc1-c1c2cc(O)c(=O)cc-2oc2cc(O)c(O)cc12	active: 1 µM	
O=C(NCC1CCCO1)c1cc([N+](=O)[O-])ccc1N1CCC(Cc2ccccc2)CC1 (stereo unspecified)	inconclusive: 22.4 µM [inhibitor, full curve, poor fit]	
Cc1nnc(NS(=O)(=O)c2ccc(N)cc2)s1	inactive	
COc1ccc(OC)c(S(=O)(=O)Nc2ccc(O)c(Sc3ncn[nH]3)c2)c1	inconclusive: 100 µM [inhibitor, single point]	

— PubChem BioAssay AID504339 (National Center for Advancing Translational Sciences (NCATS), 2011)
